In all, about 340,000 compounds went through this assay and about 6,900 (2%) were called active. Cut-off read from the data, not from the text of the source: active = inhibition above about 30%; inactive = below that, where a call was filed. Only a part is listed here, and it is no random draw. The source gives no active or inactive call for entries shown without one.
What follows are compounds tested against D(2) dopamine receptor (Homo sapiens) (UniProt P14416) (assay: HTS Assay for Allosteric Antagonists of the Human D2 Dopamine Receptor: Primary Screen for Antagonists). Conditions: HEK293 TREx D2 cells, calcium flux, dopamine EC80; at 10 µM; stronger effect = higher value.
Sequence of UniProt P14416 (P14416 whole entry, looked up): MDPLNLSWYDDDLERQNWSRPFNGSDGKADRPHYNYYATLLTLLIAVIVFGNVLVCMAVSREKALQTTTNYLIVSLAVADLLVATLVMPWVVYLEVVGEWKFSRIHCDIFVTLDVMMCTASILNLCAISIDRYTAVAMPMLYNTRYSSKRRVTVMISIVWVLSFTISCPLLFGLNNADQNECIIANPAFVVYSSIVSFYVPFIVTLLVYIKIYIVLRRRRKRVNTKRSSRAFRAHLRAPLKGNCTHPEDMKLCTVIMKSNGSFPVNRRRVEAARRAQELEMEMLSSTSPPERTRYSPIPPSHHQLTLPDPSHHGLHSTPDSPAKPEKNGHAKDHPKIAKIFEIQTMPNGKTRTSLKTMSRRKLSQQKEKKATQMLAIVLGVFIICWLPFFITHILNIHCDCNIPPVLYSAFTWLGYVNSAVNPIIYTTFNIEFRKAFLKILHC
In short: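 Overnight-induced (tetracycline, 30 C) HEK293 T-REx cells carrying force-coupled D2 receive a no-wash calcium dye, then compound, then EC80 dopamine at 180 s; signals are read kinetically throughout.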
For `O=[N+]([O-])c1ccc(NCc2ccccc2)c2nonc12`, the inhibition was active: 44%. `O=c1[nH]c2ccccc2n1CCCN1CCC(n2c(=O)[nH]c3cc(Cl)ccc32)CC1` was tested, and the inhibition was active: 97.4%. In the case of `Cc1ccc(Cn2cccc(C(=O)Nc3nnc(C)s3)c2=O)cc1`, the inhibition is reported as 17%. In the case of `CCOC(=O)c1ccc(NC(=O)c2cccn(Cc3ccc(C)cc3)c2=O)cc1`, the inhibition is reported as 1.3%. For `Oc1ccc(C[C@H]2NCCc3cc(O)c(O)cc32)cc1O`, the inhibition was active: 84.8%. In the case of `NS(=O)(=O)OC(CCc1ccccc1)C(Cl)(Cl)Cl` (centres undefined), the inhibition is reported as active: 38.5%. `CSc1ncc(C(=O)Nc2ccc(Cl)cc2C(=O)c2ccccc2)c(C)n1` showed an inhibition of -7.86%. With `CCOc1ccccc1CN(CCc1ccc2c(c1)OCO2)Cc1ccc(CC)cc1` the inhibition was 1.43%. `Cc1ccccc1-n1c(/C=C/c2ccc(O)cc2)nc2ccccc2c1=O` showed an inhibition of 21.5%. In the case of `CC(C)(C)c1ccc(OCC(=O)Nc2ccc(Cl)cc2C(=O)c2ccccc2)cc1`, the inhibition is reported as -3.14%. For `COc1ccc(Br)cc1CN1CCN(CCO)CC1`, the inhibition was active: 54.7%. Compound `COc1ccc(NC(C)=O)cc1NC(=O)c1cccn(Cc2ccccc2)c1=O` has an inhibition of -2.53%. In the case of `Cc1cccc(NC2=NCCCS2)c1C`, the inhibition is reported as active: 38.4%. `Cc1nnc(NC(=O)c2cccn(Cc3cccc([N+](=O)[O-])c3)c2=O)s1` showed an inhibition of 28.2%. `COc1ccc(-c2nc(CN3C(=O)CN=C(c4ccccc4)c4ccccc43)c(C)o2)cc1` was tested, and the inhibition was 5.4%. In the case of `CN(C)P1(N(C)C)=Nc2c(c(N)nn2C)C(c2ccccc2)=N1`, the inhibition is reported as active: 31.5%. `ON1C2CCCCC2N(O)C1c1ccccc1F` (centres undefined) was tested, and the inhibition was active: 50%. `CSc1ccc(CN2CCN(C(=O)COc3cccc(C)c3)CC2)cc1` gave an inhibition of -14%. For `Cc1ccc(C2CN(C)CC2C(=O)c2ccc(F)cc2)cc1` (centres undefined), the inhibition was active: 70%. `Cc1cccc(-n2c(/C=C/c3c[nH]c4ccccc34)nc3ccccc3c2=O)c1` gave an inhibition of 3.35%. For `C=CCN1CCc2cccc3c2[C@H]1Cc1ccc(O)c(O)c1-3`, the inhibition was active: 88.8%. In the case of `COc1ccc(C(=O)N2CCCC2=O)cc1`, the inhibition is reported as active: 39.8%. Work on `Cc1cccc(Cn2cccc(C(=O)Nc3cc(C)on3)c2=O)c1` yielded an inhibition of -16.4%. For `COc1ccc(C(C)=O)cc1CN1CC=C(c2ccccc2)CC1`, the inhibition was active: 78.1%. With `O=[N+]([O-])c1ccc(N2CCNCC2)cc1NCc1ccco1` the inhibition was active: 61.3%. `NCC(O)c1cc(O)c(O)cc1F` (centres undefined) was tested, and the inhibition was active: 81.2%. `Cc1cc(C)cc(N2C(=O)NC(=O)/C(=C\c3cccn3-c3ccc(Cl)cc3)C2=O)c1` was tested, and the inhibition was active: 37.8%. For `CN(C)C1(CNC(=O)Nc2ccc(Cl)c(Cl)c2)CCCCC1`, the inhibition was active: 54.3%. In the case of `CC(C)[C@@]1(NC(=O)[C@@H]2C[C@@H]3c4cccc5[nH]cc(c45)C[C@H]3N(C)C2)O[C@@]2(O)[C@@H]3CCCN3C(=O)[C@H](Cc3ccccc3)N2C1=O`, the inhibition is reported as active: 101%. In the case of `CCc1cccc(NC(=O)CN2C(=O)CN=C(c3ccccc3F)c3cc(Cl)ccc32)c1`, the inhibition is reported as 9.81%. With `CCN(CC)CCCC(C)N=C(c1ccccc1)c1c(O)n(C)c(=O)n(C)c1=O` (centres undefined) the inhibition was active: 68.9%. In the case of `CCOc1ccc(C2C(C#N)=C(N)Oc3c2c(=O)oc2ccccc32)cc1` (centres undefined), the inhibition is reported as active: 30.7%. For `COc1ccccc1N1CCN(CCc2ccccc2)CC1`, the inhibition was active: 73.5%. With `N#Cc1cc2c(nc1SCC(=O)Nc1ccc(C(F)(F)F)cc1)C1CCN2CC1` the inhibition was -7.35%. `COc1ccc(-n2c(/C=C\c3ccccc3F)nc3ccccc3c2=O)c(OC)c1` gave an inhibition of -7.41%. Compound `CC(C)c1ccc(OCC(=O)N2CCN(CCc3ccncc3)CC2)cc1` has an inhibition of 7.89%. `CN1CCN(c2ccc(N)cc2Cl)CC1` was tested, and the inhibition was active: 45.9%. `CCOc1ccc(CN(CCc2ccc3c(c2)OCO3)Cc2cc(OC)ccc2O)cc1` gave an inhibition of 11.8%. `Cc1ccc(NC(=O)N(Cc2ccc3c(c2)OCO3)C2CCN(Cc3ccccc3)CC2)cc1C` showed an inhibition of -22.4%. With `CN1CCN(c2ccc([N+](=O)[O-])c(NCc3ccco3)c2)CC1` the inhibition was active: 52.7%. `Cc1cc(OCC(=O)N2CCN(CCc3ccncc3)CC2)ccc1Cl` was tested, and the inhibition was -1.04%. `COc1ccc(OCC(=O)N2CCN(Cc3cccc(OC)c3OC)CC2)cc1` was tested, and the inhibition was 8.09%. In the case of `CC(C)(C)c1ccc(C(=O)C2CCCN(C3CCC3)C2)cc1` (centres undefined), the inhibition is reported as active: 37.5%. Work on `Cc1cc(C)cc(OCC(=O)Nc2ccc(Cl)cc2C(=O)c2ccccc2)c1` yielded an inhibition of -1.47%. In the case of `NC(=O)c1ccc(OCCC(O)N2CC=C(c3ccc(F)cc3)CC2)cc1` (centres undefined), the inhibition is reported as active: 64.6%. `Clc1cccc(N2CCNCC2)c1` was tested, and the inhibition was active: 35%. With `c1ccc(CCN2CCC(N3CCN(c4ccccc4)CC3)CC2)cc1` the inhibition was active: 71.8%. `CCOC(=O)c1ccc(NC(=O)c2sc3nc4c(cc3c2N)N2CCC4CC2)cc1` gave an inhibition of 0.485%. `CC(C)OCC(O)CN1CC2C[C@@H](C1)Cn1c2cccc1=O` (some centres undefined) was tested, and the inhibition was active: 41.7%.
Note: 0% is about no effect.
